Data on 88 compounds can be found in PMC4336329 (PLoS ONE, 2015).

In all, about 310,000 compounds went through this assay and about 2,200 (0.71%) showed an effect of 50% or more. Effects have a minus sign here. The list shows a part of the results.

human ether-à-go-go-related gene (hERG) potassium channel, sequence (Q12809 whole entry, looked up): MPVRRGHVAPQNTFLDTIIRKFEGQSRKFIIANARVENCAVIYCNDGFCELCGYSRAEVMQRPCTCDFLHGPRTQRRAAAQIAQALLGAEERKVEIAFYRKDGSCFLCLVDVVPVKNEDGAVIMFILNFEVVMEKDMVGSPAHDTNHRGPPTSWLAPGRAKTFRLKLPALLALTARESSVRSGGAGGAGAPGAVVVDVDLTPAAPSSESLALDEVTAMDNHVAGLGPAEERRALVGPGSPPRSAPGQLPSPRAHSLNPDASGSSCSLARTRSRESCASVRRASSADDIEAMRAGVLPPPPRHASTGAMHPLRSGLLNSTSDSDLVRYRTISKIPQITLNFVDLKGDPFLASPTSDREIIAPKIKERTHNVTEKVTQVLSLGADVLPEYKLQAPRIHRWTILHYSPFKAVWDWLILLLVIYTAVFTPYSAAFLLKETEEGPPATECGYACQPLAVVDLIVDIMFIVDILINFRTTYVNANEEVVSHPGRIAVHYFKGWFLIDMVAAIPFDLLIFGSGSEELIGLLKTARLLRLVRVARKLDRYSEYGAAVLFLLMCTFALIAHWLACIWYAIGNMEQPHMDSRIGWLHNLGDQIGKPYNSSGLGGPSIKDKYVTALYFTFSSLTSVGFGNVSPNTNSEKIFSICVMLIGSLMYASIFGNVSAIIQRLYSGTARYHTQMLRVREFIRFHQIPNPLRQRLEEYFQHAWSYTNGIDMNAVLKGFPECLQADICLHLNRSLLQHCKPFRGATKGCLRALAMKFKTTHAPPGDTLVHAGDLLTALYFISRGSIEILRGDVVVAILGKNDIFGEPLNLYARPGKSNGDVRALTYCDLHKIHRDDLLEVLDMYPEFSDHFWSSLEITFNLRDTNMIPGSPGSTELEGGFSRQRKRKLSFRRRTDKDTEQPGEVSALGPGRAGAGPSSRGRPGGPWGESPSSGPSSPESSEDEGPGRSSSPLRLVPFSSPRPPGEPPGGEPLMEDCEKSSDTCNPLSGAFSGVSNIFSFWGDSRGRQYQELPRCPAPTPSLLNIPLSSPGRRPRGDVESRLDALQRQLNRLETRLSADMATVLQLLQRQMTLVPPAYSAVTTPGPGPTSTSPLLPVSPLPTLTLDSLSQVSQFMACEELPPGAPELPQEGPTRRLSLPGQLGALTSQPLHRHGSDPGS

This experiment addresses human ether-à-go-go-related gene (hERG) potassium channel (human, UniProt Q12809). The experiment in a line: primary screen, population patch clamp on CHO cells stably expressing hERG.
With `COc1ccc(CCNC(=O)c2cccc(S(=O)(=O)N3CCc4ccccc4C3)c2)cc1`, the “hERG current change (%, negative = inhibition) at 1uM” value was determined as 8.51%.

For the compound `CS(=O)(=O)N1CCC(C(=O)N2CCc3ccccc3C2)CC1`, the “hERG current change (%, negative = inhibition) at 1uM” value is 3.91%. Take `O=C(O)c1cc(-c2c[nH]c3ccccc23)nc2cc3ccccc3cc12`: the “hERG current change (%, negative = inhibition) at 1uM” value was determined as 8.22%. On to `Cc1ccccc1/C=N/n1c(-c2ccccn2)n[nH]c1=S`, for which the “hERG current change (%, negative = inhibition) at 1uM” value is 11.1%.

On to `CSc1nnc([C@H](C)NC(=O)OC(C)(C)C)o1`, for which the “hERG current change (%, negative = inhibition) at 1uM” value was -2%. The same measure for `O=C(CN1CCN(S(=O)(=O)c2ccccc2)CC1)Nc1ccccc1Cl`: 2.63%; for `CCOC(=O)c1c(NC(=O)CSc2nnc(C)s2)sc2c1CCC(C)C2` (stereo not shown): 14%; for `COc1ccc(Oc2nc(C)cc(C)c2C#N)cc1`: 10.5%. Then `Nc1nonc1-n1nnc(C(=O)N/N=C/c2ccccc2Cl)c1CN1CCOCC1`, with -8.08%; and `COC(=O)c1ccccc1NS(=O)(=O)c1ccc(NC(C)=O)cc1`, with 9.56%. The same measure for `CCOC(=O)C1C(=O)C=C(c2ccc(OC)cc2)CC1c1ccco1` (stereo not shown): 6.46%.

In the case of `Oc1nc(-c2ccc(Br)cc2)n2ccncc12`, the “hERG current change (%, negative = inhibition) at 1uM” value was found to be 6.78%. Then `O=c1[nH]c(CN2CCN(c3ncccn3)CC2)nc2c(Br)cc(Br)cc12`, with 6.17%; and `O=C(O)c1cc2ncc(-c3[nH]ncc3[N+](=O)[O-])cn2n1`, with 12%; and `COc1cc(CNCCN(C)C)ccc1OCc1c(F)cccc1Cl.Cl`, with -13.4%.

For `N#CC1=C(N)N2C(=C(C#N)C13CCN(Cc1ccccc1)CC3)Nc1ccccc12`, the “hERG current change (%, negative = inhibition) at 1uM” value is reported as -11%. Turning to `CS(=O)(=O)N(Cc1ccc(Cl)cc1)c1ccc(C(=O)NCc2ccccn2)cc1`, the “hERG current change (%, negative = inhibition) at 1uM” value is recorded as -0.436%. As to `Cc1cc(C(C)(C)C)cc(S(=O)(=O)NCCc2ccncc2)c1C`, the “hERG current change (%, negative = inhibition) at 1uM” value was found to be 10.3%. Then `Cc1cccc(NC(=O)CCS(=O)(=O)c2ccccc2)n1`, with 10.6%; and `CCN(CC(=O)NC1CCCC1)S(=O)(=O)c1ccc(Br)cc1`, with 14.2%. Take `Cc1ccc(Oc2ncccc2/C=N/OCc2ccc(Cl)cc2Cl)cc1`: the “hERG current change (%, negative = inhibition) at 1uM” value came out at 7.61%.

For `CCCCn1c(N)c(N(CCOC)C(=O)COC(=O)c2cc(CCC)c(C)s2)c(=O)[nH]c1=O`, the “hERG current change (%, negative = inhibition) at 1uM” value turned out to be 6.81%.

Take `COc1ccc(C2(C)CC(=O)NC2=O)cc1` (stereo not shown): the “hERG current change (%, negative = inhibition) at 1uM” value is recorded as 9.68%. The same measure for `CC(=O)c1ccc(NC(=O)Nc2ccc([N+](=O)[O-])cc2)cc1`: 14.7%; for `Cc1ccc(-n2c(SCC(=O)Nc3ccc4c5c(cccc35)CC4)nc(O)c(C)c2=O)cc1`: 20.3%; for `COc1cccc(/C=C/C(=O)OCC(=O)Nc2nnc(-c3ccccc3)o2)c1`: 7.81%. Regarding `COc1cc(NC(=O)C/C(C)=N/NC(=O)Cc2ccc(Cl)cc2)c(OC)cc1Cl`, the “hERG current change (%, negative = inhibition) at 1uM” value is on record as 1.81%.

In the case of `NC(=O)[C@@H]1CCCNc2c(F)cc([N+](=O)[O-])cc2C(=O)N[C@@H](CO)C(=O)NCC(=O)N1`, the “hERG current change (%, negative = inhibition) at 1uM” value was found to be 9.46%. The same measure for `Cc1ccsc1C(C(=O)NC(C)(C)C)N(Cc1ccco1)C(=O)c1csnn1` (stereo not shown): 10.4%; for `O=C(NNC(=O)c1c(F)cccc1F)c1ccccc1OC(F)(F)F`: 12.9%; for `COc1ccc(N(CC(=O)N2CCOCC2)S(C)(=O)=O)cc1`: 16.4%. As to `O=C(CSCc1cccc(Cl)c1)OCc1nc2ccsc2c(=O)[nH]1`, the “hERG current change (%, negative = inhibition) at 1uM” value is listed as -1.9%. Regarding `Nc1nonc1-n1nnc(C(=O)N/N=C/c2cccc(Cl)c2)c1CSc1ccccc1`, the “hERG current change (%, negative = inhibition) at 1uM” value is recorded as 13.6%.

`CNS(=O)(=O)c1cccc(C(=O)OCC(=O)Nc2ccccc2OC(F)F)c1`: the “hERG current change (%, negative = inhibition) at 1uM” value worked out at 6.97%. With `O=C(CSc1nc2[nH]ncc2c(=O)n1-c1ccccc1)N1CCCCCC1`, the “hERG current change (%, negative = inhibition) at 1uM” value is 10.3%. The same measure for `CCc1cccc2c1NC(=O)C2(O)CC(=O)c1cccs1` (stereo not shown): 21.1%.

On to `COc1ccc(Cl)cc1NS(=O)(=O)c1ccc2c(c1)NC(=O)CCS2`, for which the “hERG current change (%, negative = inhibition) at 1uM” value stood at 7.88%. For the compound `N#CNC(=Nc1cccc(Cl)c1)Oc1ccccc1`, the “hERG current change (%, negative = inhibition) at 1uM” value is listed as 8.69%. Then `CC1(C)CC(=O)c2sc(NC(=O)CN3CCCCC3)nc2C1`, with 6.72%; and `Cc1cc(OC(=O)c2ccccc2F)c([N+](=O)[O-])c(=O)[nH]1`, with 13%. Then `Cc1cc2c(ncn2C(C)C)c(N)c1C`, with -7.87%. Take `COc1ccc(N2CCN(C(=O)Cn3cnc4c(cnn4-c4ccccc4)c3=O)CC2)cc1`: the “hERG current change (%, negative = inhibition) at 1uM” value is given as 5.22%. The same measure for `O=C(NCC(=O)N(c1ccc2c(c1)OCO2)C(C(=O)NC1CCCC1)c1ccncc1)c1ccco1` (stereo not shown): 1.4%.

As to `Cc1ccc(NC(=O)CCNS(=O)(=O)c2cccs2)cc1F`, the “hERG current change (%, negative = inhibition) at 1uM” value stood at 13.4%. Then `O=C(CCC1(C(=O)O)CCC(=O)NC1)NCc1ccccc1` (stereo not shown), with 8.82%; and `N#C/C(=C\c1ccc(OCc2ccccc2)cc1)C(=O)Nc1nc2c(s1)CCN(Cc1ccccc1)C2`, with 14.8%. Then `O=C1NC(=O)/C(=C\c2cn(CC(=O)N3CCOCC3)c3ccccc23)S1`, with 12.3%; and `O=C(/C=C/c1ccc(Br)cc1)NC(=S)NNC(=O)c1ccco1`, with 7%; and `COc1cccc(-c2nc(CS(=O)(=O)CC(=O)NCCN3CCOCC3)c(C)o2)c1`, with 12%.

As to `CCOC(=O)c1c(NC(=O)C2Cc3ccccc3C(=O)O2)sc2c1CCCC2` (stereo not shown), the “hERG current change (%, negative = inhibition) at 1uM” value is 11.1%. For `O=S(=O)(c1c(Cl)sc(Cl)c1Br)N1CCCC1`, the “hERG current change (%, negative = inhibition) at 1uM” value was determined as 9.04%. The same measure for `CCSc1nc2ccccc2n1CCC(=O)O`: 6.12%. For the compound `O=C(N1CCOCC1)C12CC3CC(C1)CC(n1cnc(Cl)n1)(C3)C2`, the “hERG current change (%, negative = inhibition) at 1uM” value is recorded as 2.09%.

Regarding `CCn1cnnc1SCC(=O)c1c(N)n(C2CC2)c(=O)[nH]c1=O`, the “hERG current change (%, negative = inhibition) at 1uM” value is on record as 9.4%. With `COC(=O)c1c(NC(=O)CCS(=O)(=O)c2ccccc2)sc2c1CCN(C)C2.Cl`, the “hERG current change (%, negative = inhibition) at 1uM” value was -13.3%. Then `Cc1ccc(C)c(S(=O)(=O)N2CCN(C(=O)C3CC3C)CC2)c1` (stereo not shown), with 7.35%; and `O=C(CCN1C(=O)C2CC=CCC2C1=O)N1CCN(c2ccccn2)CC1` (stereo not shown), with 9.35%; and `FCCCOc1ccc(/C=N/OCc2ccc(Cl)cc2Cl)cc1`, with 9.53%. The same measure for `CCc1nnc(NC(=O)c2oc3cc(C)c(C)cc3c2C)s1`: 6.68%. On to `O=C(Nc1ccc(Oc2ccccc2)nc1)C1CCCCN1Cc1ccc(OCCO)cc1` (stereo not shown), for which the “hERG current change (%, negative = inhibition) at 1uM” value came to 9.03%.

As to `O=C1c2cccc3cc(Br)cc(c23)C(=O)N1Nc1ccccc1`, the “hERG current change (%, negative = inhibition) at 1uM” value is given as 14.6%. The same measure for `O=C(N/N=C/c1ccc2c(c1)OCO2)c1ccc(NS(=O)(=O)c2cccs2)cc1`: 8.33%; for `COc1ccc(C(=O)O/N=C/c2ccc(S(=O)c3ccc(Cl)cc3)nc2)cc1` (stereo not shown): 11.6%; for `O=C(c1cccc(Oc2c(Cl)cccc2[N+](=O)[O-])c1)N1CCOCC1`: 3.79%.

With `CCCNC(=O)N1[C@H]2CC[C@@H]1C(C(=O)OC)=C(c1ccc(C(C)=O)cc1)C2`, the “hERG current change (%, negative = inhibition) at 1uM” value was found to be 10.1%.

As to `CCOC(=O)C1CCCCN1Cc1ccc(C(F)(F)F)cc1` (stereo not shown), the “hERG current change (%, negative = inhibition) at 1uM” value was 14.2%. Regarding `CCOc1ccc2c(c1)C(NC(C)=O)C(=O)N2CCN1CCOCC1.Cl` (stereo not shown), the “hERG current change (%, negative = inhibition) at 1uM” value was 12.3%. Then `CC1(C)CC(NC(=O)c2ccc(Cl)cc2Cl)CC(C)(C)N1`, with 12.3%; and `CCC(C)N(C(=O)Cn1c(Cl)nc2c1c(=O)n(C)c(=O)n2C)C1CCS(=O)(=O)C1` (stereo not shown), with 1.88%; and `CCOc1ccc(/C=N/NC(=O)c2ccccc2NC(=O)c2ccc(OC)cc2)cc1`, with 3.71%. Regarding `CC1CCCC(n2cnc3cc(C(=O)O)ccc32)C1C` (stereo not shown), the “hERG current change (%, negative = inhibition) at 1uM” value came out at 8.94%. For the compound `N#Cc1ccsc1NC(=O)c1cnccn1`, the “hERG current change (%, negative = inhibition) at 1uM” value is given as -11%. As for `Cc1ccc(N(C(=O)c2nsc(Cl)c2Cl)C(C(=O)NC2CCCC2)c2ccc(O)cc2)cc1C` (stereo not shown), the “hERG current change (%, negative = inhibition) at 1uM” value is 9.87%. The same measure for `Cc1ccc(S(=O)(=O)CC(C)(O)CS(=O)(=O)c2ccc(C)cc2)cc1`: 10.4%. Regarding `N/C(=N\OC(=O)c1cccc(Br)c1)c1ccc(Br)cc1`, the “hERG current change (%, negative = inhibition) at 1uM” value came to 2.01%. As for `O=C(NC(=S)Nn1cnc2c(cnn2-c2ccccc2)c1=O)c1ccccc1`, the “hERG current change (%, negative = inhibition) at 1uM” value is 7.47%. Turning to `COC(=O)NC1(C(=O)O)CCCC1`, the “hERG current change (%, negative = inhibition) at 1uM” value is -0.0441%. Then `Cc1ccc2oc(C(=O)NCc3ccc(S(N)(=O)=O)cc3)cc(=O)c2c1`, with 14.2%; and `C/C(=N\NC(=O)c1nnn(-c2nonc2N)c1-c1cccs1)c1ccncc1`, with 2.02%; and `CCOc1ccc(CNC(=O)Cn2nc(C)c3c(C)n(-c4ccc(C)cc4)nc3c2=O)cc1`, with 6.12%. Then `COc1ccc(NC(=O)C(CC(=O)O)Cc2ccccc2)cc1` (stereo not shown), with 8.96%; and `Cc1nc2c(c(C)nn2-c2ccccc2)c(C)c1CCC(=O)Nc1ccc(CN2CCCC2)cc1`, with 2.5%. Then `COc1ccc(C)cc1N(C)C(=O)Cc1c(C(=O)O)n(C)c2ccccc12`, with 10.8%; and `Nc1nnc(SCC(=O)Nc2nnc(-c3ccccc3)o2)s1`, with 15.7%. `CCCn1c(SC(C(=O)Nc2cccc(OC)c2)c2ccccc2)nc2ccccc2c1=O` (stereo not shown): the “hERG current change (%, negative = inhibition) at 1uM” value is given as 4.61%. Regarding `CC(C)N=C(NC#N)SCC(=O)NC(C)(C)C`, the “hERG current change (%, negative = inhibition) at 1uM” value amounted to 6.29%. For `O=C(c1ccc2n[nH]nc2c1)N1CCN(c2ccc(C(F)(F)F)cn2)CC1`, the “hERG current change (%, negative = inhibition) at 1uM” value is -5.91%. Take `O=C(O)COc1ccccc1/C=N/NC(=O)CNC(=O)c1ccc(F)cc1`: the “hERG current change (%, negative = inhibition) at 1uM” value was 12.9%.
